The record followed here is article PMC4336329 (PLoS ONE, 2015).

About 14,000 (4.5%) of roughly 310,000 compounds showed an effect of 50% or more. Effects have a minus sign here. The list shows a part of the results.
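Further: peak tail current of the secondary pulse compared with the same well before compound.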

human ether-à-go-go-related gene (hERG) potassium channel, sequence (Q12809 whole entry, looked up): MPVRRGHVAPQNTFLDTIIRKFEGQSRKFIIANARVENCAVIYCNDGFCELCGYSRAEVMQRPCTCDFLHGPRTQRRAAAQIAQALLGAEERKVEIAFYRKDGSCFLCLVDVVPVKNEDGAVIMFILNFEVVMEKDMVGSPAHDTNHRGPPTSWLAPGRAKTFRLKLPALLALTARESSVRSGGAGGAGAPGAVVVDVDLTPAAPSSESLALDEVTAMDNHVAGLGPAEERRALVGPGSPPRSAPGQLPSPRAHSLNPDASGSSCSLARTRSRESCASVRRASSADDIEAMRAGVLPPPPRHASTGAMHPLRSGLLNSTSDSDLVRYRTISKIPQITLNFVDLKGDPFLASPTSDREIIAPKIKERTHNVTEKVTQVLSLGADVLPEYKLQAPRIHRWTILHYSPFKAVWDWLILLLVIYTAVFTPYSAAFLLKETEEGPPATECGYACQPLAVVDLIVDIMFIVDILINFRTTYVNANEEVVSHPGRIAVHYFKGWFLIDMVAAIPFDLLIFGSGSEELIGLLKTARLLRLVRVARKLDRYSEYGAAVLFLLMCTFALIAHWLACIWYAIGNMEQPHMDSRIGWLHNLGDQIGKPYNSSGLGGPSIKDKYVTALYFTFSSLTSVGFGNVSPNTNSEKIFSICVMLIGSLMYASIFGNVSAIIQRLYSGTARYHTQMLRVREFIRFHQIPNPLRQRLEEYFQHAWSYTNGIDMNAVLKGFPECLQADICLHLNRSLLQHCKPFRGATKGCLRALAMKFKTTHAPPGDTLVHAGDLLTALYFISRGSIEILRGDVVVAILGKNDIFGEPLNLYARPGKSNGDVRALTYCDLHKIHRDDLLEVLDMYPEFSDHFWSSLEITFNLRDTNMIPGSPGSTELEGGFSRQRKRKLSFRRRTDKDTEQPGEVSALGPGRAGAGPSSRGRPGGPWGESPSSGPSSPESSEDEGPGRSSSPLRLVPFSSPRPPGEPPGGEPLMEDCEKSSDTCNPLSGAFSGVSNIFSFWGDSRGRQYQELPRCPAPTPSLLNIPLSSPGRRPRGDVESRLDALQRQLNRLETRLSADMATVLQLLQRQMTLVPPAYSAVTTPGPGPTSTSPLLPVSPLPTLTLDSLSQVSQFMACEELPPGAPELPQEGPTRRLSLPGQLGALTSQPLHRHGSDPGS

This experiment addresses human ether-à-go-go-related gene (hERG) potassium channel (human, UniProt Q12809). As to the kind of experiment: primary screen, population patch clamp on CHO cells stably expressing hERG.
For the molecule `Cc1ccc(S(=O)(=O)Cc2ccc(C(=O)N3CCC(C)CC3)cc2)cc1`, the “hERG current change (%, negative = inhibition) at 10uM” value was -21.9%.

Regarding `Cc1ccc(S(=O)(=O)N(C)c2ccc3c(ncn3C)c2[N+](=O)[O-])cc1`, the “hERG current change (%, negative = inhibition) at 10uM” value is given as -31%.

With `COc1ccccc1CN1CCCC(CNC(=O)c2cccc3ccccc23)C1` (stereo not shown), the “hERG current change (%, negative = inhibition) at 10uM” value is reported as -47.8%.

In the case of `Cc1nc(CS(=O)(=O)c2ccc(Cl)cc2)cc(N2CCOCC2)n1`, the “hERG current change (%, negative = inhibition) at 10uM” value is given as 4.53%.

As for `Cc1ccc(S(=O)(=O)N2CCC(C(=O)OC(C)C(=O)NC(N)=O)CC2)cc1C` (stereo not shown), the “hERG current change (%, negative = inhibition) at 10uM” value is 0.3%.

Regarding `CSc1nsc(NC(=O)CCNC(=O)c2ccc([N+](=O)[O-])cc2)n1`, the “hERG current change (%, negative = inhibition) at 10uM” value is reported as -41.9%.

On to `COc1ccccc1N1CCN(Cc2ccccc2F)CC1`, for which the “hERG current change (%, negative = inhibition) at 10uM” value is -17.6%.

`O=C(NC1CCN(C(=O)N2c3ccccc3Sc3ccccc32)CC1)c1ccco1`: the “hERG current change (%, negative = inhibition) at 10uM” value is reported as 6.67%.

As for `CC1CCN(CCC(=O)N2CCCc3c2c(=O)oc2ccc(O)cc32)CC1`, the “hERG current change (%, negative = inhibition) at 10uM” value is reported as -14%.

With `CCn1cc(Br)c(C(=O)Nc2ccc(Cl)c(Cl)c2)n1`, the “hERG current change (%, negative = inhibition) at 10uM” value came to 10.4%.

`COc1ccccc1NS(=O)(=O)c1cccc(C(=O)N2CCN(C(=O)c3ccco3)CC2)c1`: the “hERG current change (%, negative = inhibition) at 10uM” value is -15.6%.

`CCOC(=O)c1sc2nc(C)nc(SCC(=O)NC(C)CCc3ccccc3)c2c1C` (stereo not shown): the “hERG current change (%, negative = inhibition) at 10uM” value amounted to 3.45%.

Turning to `CCOc1ccc(S(=O)(=O)N2CCN(C(=O)CCC(=O)N3CCOCC3)CC2)cc1`, the “hERG current change (%, negative = inhibition) at 10uM” value came to 5%.

With `CC(C)c1ccc(NC(=O)C2CC3CCC2C3)cc1` (stereo not shown), the “hERG current change (%, negative = inhibition) at 10uM” value is -12.7%.

`Cc1[nH]c2ccccc2c1N=Nc1cc(C(=O)O)cc(C(=O)O)c1`: the “hERG current change (%, negative = inhibition) at 10uM” value is -12.3%.

Take `O=C(CCn1cnc2ccccc2c1=O)Nc1ccc(S(=O)(=O)N2CCCC2)cc1`: the “hERG current change (%, negative = inhibition) at 10uM” value is listed as 17.4%.

On to `CCOC(=O)N1CCN(C(=O)c2ccc3c(c2)N(CC)CCS3)CC1`, for which the “hERG current change (%, negative = inhibition) at 10uM” value is reported as -10.4%.

In the case of `CCOC(=O)c1[nH]c(COC(=O)CCOc2ccccc2OC)c(C(=O)OCC)c1C`, the “hERG current change (%, negative = inhibition) at 10uM” value is -8.12%.

Regarding `COC(=O)C1=C(C)NC(=S)NC1c1ccc(-c2cccc(Cl)c2)o1` (stereo not shown), the “hERG current change (%, negative = inhibition) at 10uM” value was 0.0503%.

Take `CCc1ccc2nc3n[nH]c(N)c3cc2c1`: the “hERG current change (%, negative = inhibition) at 10uM” value is recorded as -1.93%.

Consider `COc1cc([N+](=O)[O-])ccc1NC(=O)CN1CCOCC1`, for which the “hERG current change (%, negative = inhibition) at 10uM” value was found to be 9.44%.

For the molecule `CCn1nc(C)c(/C=N/NC(=O)Cn2nnnc2N)c1C`, the “hERG current change (%, negative = inhibition) at 10uM” value turned out to be 18.4%.

`COCCn1c(C)cc(C(=O)COC(=O)c2[nH]c(C)c(C(C)=O)c2C)c1C`: the “hERG current change (%, negative = inhibition) at 10uM” value is -8.96%.

On to `Br.COc1ccc(-c2csc(Nc3ccc(S(N)(=O)=O)cc3)n2)cc1`, for which the “hERG current change (%, negative = inhibition) at 10uM” value is on record as 4.33%.

Turning to `CC1CCN(S(=O)(=O)c2ccc3c(c2)N(CC(=O)NCCCN2CC(C)CC(C)C2)C(=O)CS3)CC1` (stereo not shown), the “hERG current change (%, negative = inhibition) at 10uM” value is listed as -66.2%.

On to `c1ccc2c(c1)ncn2CCC1CCCCC1`, for which the “hERG current change (%, negative = inhibition) at 10uM” value is recorded as -5.47%.

In the case of `CCCCCCOc1ccc(N2C(=O)CC(S/C(N)=N/N=C(\C)c3cccs3)C2=O)cc1` (stereo not shown), the “hERG current change (%, negative = inhibition) at 10uM” value is recorded as -1.96%.

As to `O=C(Nc1ccccn1)c1ccc(Cl)c(S(=O)(=O)N2CCCCCC2)c1`, the “hERG current change (%, negative = inhibition) at 10uM” value is -32.7%.

`Cc1cccc(NC(=O)C(Cc2ccccc2)n2cccc2)c1` (stereo not shown): the “hERG current change (%, negative = inhibition) at 10uM” value was -51.2%.

With `O=C1c2cccnc2C(=O)N1Cc1cccs1`, the “hERG current change (%, negative = inhibition) at 10uM” value is -13.1%.

Consider `COc1ccc2oc(=O)c(C(=O)NCc3ccc(C)cc3)cc2c1`, for which the “hERG current change (%, negative = inhibition) at 10uM” value was found to be 12.5%.

With `COc1ccc(NC(=O)CCNS(=O)(=O)c2ccc3c(c2)CC(C)N3C(=O)C2CC2)cc1` (stereo not shown), the “hERG current change (%, negative = inhibition) at 10uM” value is reported as 0.918%.

As to `COc1cc(CO)ccc1Oc1nnnn1-c1ccc(C(N)=O)cc1`, the “hERG current change (%, negative = inhibition) at 10uM” value was 3.7%.

As for `Nc1ccn(CC(=O)NCCNc2ccc([N+](=O)[O-])cn2)c(=O)n1`, the “hERG current change (%, negative = inhibition) at 10uM” value is 7.53%.

`CC(C)CCOc1ccc(C(=O)NCC(c2cccs2)N2CCOCC2)cc1` (stereo not shown): the “hERG current change (%, negative = inhibition) at 10uM” value was -21.1%.

Take `COc1ccc(C(=O)NNC(=O)CSc2nnnn2-c2cc(OC)cc(OC)c2)cc1`: the “hERG current change (%, negative = inhibition) at 10uM” value was determined as 11.7%.

As to `COc1ccc2cc(CO)n(C)c2c1`, the “hERG current change (%, negative = inhibition) at 10uM” value is given as 10.4%.

As to `O=C(O)CCc1ccc(-c2cccs2)n1NC(=O)c1ccc(Cl)cc1Cl`, the “hERG current change (%, negative = inhibition) at 10uM” value is -1.02%.

For the molecule `CCNc1ccc(C(=O)OCC(=O)c2cc(C)n(Cc3ccc4c(c3)OCO4)c2C)cc1[N+](=O)[O-]`, the “hERG current change (%, negative = inhibition) at 10uM” value is 2.32%.

On to `O=C(CN(CC1CCCO1)C(=O)CNS(=O)(=O)c1ccc(F)cc1)NCC1CCCO1` (stereo not shown), for which the “hERG current change (%, negative = inhibition) at 10uM” value is given as 5.36%.

For the molecule `Cc1nc2ccccc2c2oc(C(=O)NCCCN3CCC(C)CC3)cc12`, the “hERG current change (%, negative = inhibition) at 10uM” value was -44.1%.

For `CCn1c(COc2ccc(=O)n(-c3ccccc3)n2)nnc1SCc1ccc(OC)cc1`, the “hERG current change (%, negative = inhibition) at 10uM” value was -67.7%.

As for `Cc1cc(-c2ccc(C)c(S(=O)(=O)Nc3cc(C)on3)c2)on1`, the “hERG current change (%, negative = inhibition) at 10uM” value came out at 2.92%.
